Measurements from doi:10.1101/2022.03.02.482667 (bioRxiv, 2022).

T1: USP10-derived octameric reporter peptide F*-YIFGDFSP
T1 peptide: {Fluorescein-Ahx}-YIFGDFSP

T2: Caprin1-derived dodecamer reporter peptide F*-YNFIQDSMLDFE
T2 peptide: {fluorescein-Ahx}-YNFIQDSMLDFE


Key:
[1] = molecular target: T1, USP10-derived octameric reporter …; experiment: fluorescence polarisation
[2] = molecular target: T2, Caprin1-derived dodecamer reporter …; experiment: fluorescence polarisation

| fold decrease in affinity against WT [1] | fold decrease in affinity against WT [2] | fold increase in affinity against WT [1] | Binder |
| --- | --- | --- | --- |
| 7.5 fold | 46 fold | – | G3BP1 NTF2 ([…]) F33W (domain or fragment) not shown |
| 2.4 fold | – | – | G3BP1 NTF2 ([…]) S38T (domain or fragment) not shown |
| – | – | 2.9 fold | G3BP1 NTF2 ([…]) S38A (domain or fragment) not shown |
| – | – | 2.4 fold | G3BP1 NTF2 ([…]) S38G (domain or fragment) not shown |

Where no end group is shown, it is not given here. Ahx = NCCCCCC(=O)O
